Measurements published in US20240173425A1, “HUMAN CD33 ANTIBODIES AND GLUCOCORTICOID CONJUGATES” (Eli Lilly and Company, priority 2022, published 2024).

Tests used:
[1] = test system: human plasmacytoid dendritic cells (pDCs); assay: Plasmacytoid dendritic cell differentiation assay; format: cell-based; details: human PBMCs, IL-3 supplemented media, CpG stimulation
Method: The differentiation of pDC was measured by flow cytometry. The functional effects of the pDC were measured by type I IFN (IFNα) production.

Viscosity (VROC initium) = format: physicochemical; details: about 125 mg/mL, 5 mM histidine pH 6, 15° C.
Method: (§1) Aggregation from cell culture: The exemplified anti-human CD33 antibodies were transiently expressed in CHO cells. […] The viscosity for each was measured using VROC® initium (RheoSense) at 15° C. using the average of 9 replicate measurements. […] Concentrated samples were incubated for a period of 4 weeks at 5° C. and 35° C., respectively. Following incubation, samples were analyzed for the percentage of high molecular weight (% HMW) species with size exclusion chromatography (SEC).

[2] = Aggregation upon temperature stress (SEC); format: physicochemical; details: about 100 mg/mL, 5 mM histidine pH 6.0, SEC
Method: as §1

[3] = target: T1, human CD33 ECD 18-232-His (Homo sapiens, UniProt P20138); assay: Binding affinity and kinetics by surface plasmon resonance (Biacore 8K); details: 37° C., 1:1 binding model
T1 construct: CD33 ECD 18-232-His proteins
T1 sequence (P20138 18-232): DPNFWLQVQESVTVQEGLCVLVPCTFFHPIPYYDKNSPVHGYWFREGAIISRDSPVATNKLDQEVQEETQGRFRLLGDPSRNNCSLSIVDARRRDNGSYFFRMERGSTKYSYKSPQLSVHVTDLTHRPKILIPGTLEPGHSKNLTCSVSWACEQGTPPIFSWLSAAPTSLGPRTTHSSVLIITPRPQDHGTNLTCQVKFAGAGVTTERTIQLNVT
Method: (§2) The affinity and binding kinetics of the exemplified anti-human CD33 antibodies to human and cynomolgus monkey CD33 ECD 18-232-His proteins was determined by surface plasmon resonance using Biacore 8K (GE Healthcare). Briefly, per the Instrument Handbook the antibody was captured on a Biacore Protein A chip followed by flowing CD33 ECD from 200 nM down to 0.782 nM in 2-fold serial dilution in PBS-P20-BSA (0.005% surfactant P20, 0.1 mg/mL BSA). All measurements were carried out at 37° C. Multi-cycle kinetics setting that ran each analyte concentration in a separate cycle regenerating the surface after each sample injection was used. The regeneration was optimized to maintain consistent surface properties from cycle to cycle. Each cycle started with a 3 minute injection of 0.1 μg/mL of the antibody at 10 μl/min flow rate, followed by 3 min injection of antigen at 50 μl/min flow rate and a 15 min dissociation phase in PBS-P20-BSA. The chip surface was then regenerated with 30 seconds injection of pH 1.5, 10 mM glycine buffer at 50 μl/min flow rate three times. The data was fit to a 1:1 binding model to derive ka and kd, and to calculate KD.

[4] = test system: cynomolgus monkey CD33 ECD 18-232-His; assay: as above; details: cynomolgus monkey CD33 ECD, 37° C., 1:1 binding model
Method: as §2

[5] = Thermal stability by Differential Scanning Calorimetry; format: physicochemical; details: DSC, PBS, pH 7.2
Method: as §1

human PBMCs [6] = assay: Immune cell depletion, total viable cell count; format: cell-based
Method: (§3) PBMCs were used to mimic in vivo conditions. […] The cells were then stimulated with LPS (Sigma cat. L2880) at 100 pg/mL in a 37° C. incubator for 24 hours. Culture supernatants were collected to measure the indicated cytokines (Proinflammatory Panel II (human) 4-Plex kits, MSD, K15053D-2).

CD33 on human monocytes = target: T2, CD33 on human monocytes (Homo sapiens, UniProt P20138); assay: Cell surface binding potency, FACS assay; format: cell-based; details: human PBMCs, 4° C. for 30 mins
T2 construct: endogenous in cells; host or cells: primary human PBMCs / monocytes from donor blood
T2 sequence (P20138 18-364): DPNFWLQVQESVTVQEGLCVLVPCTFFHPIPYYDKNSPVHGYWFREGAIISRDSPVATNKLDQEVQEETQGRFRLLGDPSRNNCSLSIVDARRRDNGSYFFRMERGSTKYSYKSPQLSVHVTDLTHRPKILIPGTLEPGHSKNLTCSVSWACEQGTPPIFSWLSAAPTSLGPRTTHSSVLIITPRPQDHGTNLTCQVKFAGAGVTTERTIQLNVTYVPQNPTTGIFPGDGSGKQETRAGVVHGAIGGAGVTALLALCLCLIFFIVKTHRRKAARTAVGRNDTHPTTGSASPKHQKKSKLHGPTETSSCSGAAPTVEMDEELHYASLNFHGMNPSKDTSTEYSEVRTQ
Method: Human PBMCs were isolated from human blood samples by standard Ficoll-Paque™ plus (GE […]) density gradient centrifugation methods. Freshly isolated cells PBMCs were resuspended at 2×10^6 cells/mL and allowed to rest for 15 minutes at room temperature, then plated at 100 μL/well into a round bottom 96-well plate (COSTAR®) and washed with FACS buffer (PBS containing 2% fetal bovine serum from Corning®). Exemplified anti-human CD33 antibodies and the respective control IgG antibodies conjugated to Alexa Fluor® 647 according to manufacturer's protocol (Thermo Fisher Scientific) were added to the wells and diluted 4-fold in duplicate. Equivalent volume of 2× antibody cocktail containing: PE-Cy5 anti-human CD14 Antibody (clone M5E2), Per-CP anti-human CD45 Antibody (clone H130), FITC anti-human CD11b (clone ICRF44), and Alexa Fluor-647 anti-human CD66b (G10F5) was then added to the wells. Cells were incubated at 4° C. for 30 mins, washed twice with FACS buffer and resuspended in a final volume of 100 μl FACS buffer. Viability dye, Live/Dead Yellow (Thermo Fisher Scientific, L34968), was added and the samples were analyzed via a flow cytometer (LSRFortessa™ X-20; BD BIOSCIENCES). Data analysis was performed using FlowJo software and statistical analysis was performed using GraphPad Prism 9. Data represents the mean fluorescence intensity (MFI) of CD33 expressing cells from monocytes or neutrophils.

[7] = test system: primary human monocyte cells; assay: Antibody internalization (pHrodo Red, flow cytometry); format: cell-based; details: pHrodo-labeled antibodies 10 μg/mL, 2 hours at 37° C.
Method: Exemplified anti-human CD33 antibodies were labeled with pHrodo™ Red, amine-reactive dye (Thermo Fisher, P36014). The pH-sensitive dye was a non-fluorescent when outside the cells but fluoresces brightly in acidic low-pH lysosomes. This property allows visualization and qualification of the internalization of an antibody by flow cytometry. Human PBMCs (500 K/well) were incubated on ice in FACS buffer for 30 min, to quiesce baseline internalization. Cells were stained with pHrodo-labeled antibodies (10 μg/mL) in FACS buffer for 1 hour on ice then transferred to 37° C. for 2 hours. Cells were then stained with the remaining panel of surface detection marker: CD45 mAb (clone HI30); CD11b (clone ICRF44); CD14 (clone M5E2).

[8] = Aggregation from cell culture and titer after Protein A purification; format: physicochemical; details: transient expression in CHO cells
Method: as §1

CD33 in human PBMCs = target: T3, CD33 in human PBMCs (Homo sapiens, UniProt P20138); assay: CD33 receptor degradation, protein immunoblot assay; format: cell-based; details: human PBMCs treated overnight at 37° C., compared to isotype control
T3 construct: endogenous in cells; host or cells: primary human PBMCs / monocytes from donor blood
T3 sequence (P20138 18-364): as above
Method: Human PBMCs were isolated from human blood samples by standard Ficoll-Paque™ plus (GE […]) density gradient centrifugation methods. Freshly isolated PBMCs were seeded in 24-well cell culture plate at 1×10^7 cells/5 mL/well in culture media. […] This step allowed for determining degradation of internalized CD33 receptor. Cells were collected the following day and lysed with RIPA lysis buffer with protease and phosphatase inhibitors. Cell lysate protein was quantified by bicinchoninic acid (BCA) assay, and normalized for loading for the protein immunoblot assay. A non-competing anti-CD33 antibody (AbCam clone EPR4423) was used to detect CD33 levels.

human PBMCs [9] = assay: Proinflammatory cytokine modulation in LPS-stimulated PBMCs; format: cell-based; details: LPS 100 pg/mL, 24 hours
Method: as §3

B1: Ab2: anti-human CD33 antibody, HC SEQ ID NO: 9 and LC SEQ ID NO: 10, IgG1AAA backbone (antibody)
heavy: [about 100 residues not printed]TYSNYDYWGQGTLVTVSSASTKGPCVFPLAPSSKSTSGGTAALGCLVKDYFPEPVTVSWNSGALTSGVHTFPAVLQSSGLYSLSSVVTVPSSSLGTQTYICNVNHKPSNTKVDKRVEPKSCDKTHTCPPCPAPEAAGGPSVFLFPPKPKDTLMISRTPEVTCVVVDVSHEDPEVKFNWYVDGVEVHNAKTKPREEQYNSTYRVVSVLTVLHQDWLNGKEYKCKVSNKALAAPIEKTISKAKGQPREPQVYTLPPSREEMTKNQVSLTCLVKGFYPSDICVEWESNGQPENNYKTTPPVLDSDGSFFLYSKLTVDKSRWQQGNVFSCSVMHEALHNHYTQKSLSLSPGK
light: DIQMTQSPSSLSASVGDRVTITCQASQPTFNYLNWYQQKPGKAPKLLIYDASNLQTGVPSRFSGSGSGTDFTFTISSLQPEDIATYYCQQYEDLPTFGPGTKVDIKRTVAAPSVFIFPPSDEQLKSGTASVVCLLNNFYPREAKVQWKVDNALQSGNSQESVTEQDSKDSTYSLSSTLTLSKADYEKHKVYACEVTHQGLSSPVTKSFNRGEC
**Q.** Which “% Inhibition of human IFNα secretion” value [1] does the source give for B1 here?
**A.** The value was 1.25 ± 0.19%.

**Q.** And the “% Inhibition of pDC cell differentiation” value ([1]; flow cytometry)?
**A.** Its value is 0.97 ± 0.39%.

**Q.** And the Viscosity (Viscosity (VROC initium))?
**A.** The Viscosity was 6.5 cP.

**Q.** And the “% HMW after 4-week incubation at 5° C.” value [2]?
**A.** The value was under 0.1%.

**Q.** What about the “% HMW after 4-week incubation at 35° C.” value [2] of the same molecule?
**A.** The value was 0.86%.

**Q.** What about the ka [3] of the same molecule?
**A.** Its ka is 454000 M⁻¹ s⁻¹.

**Q.** What about the kd [3] of the same molecule?
**A.** The kd was 0.000516 s⁻¹.

**Q.** What about the ka [4] of the same molecule?
**A.** The ka was 653000 M⁻¹ s⁻¹.

**Q.** What about the kd [4] of the same molecule?
**A.** Its kd is 0.00279 s⁻¹.

**Q.** What about the Tm1 [5] of the same molecule?
**A.** The Tm1 was 71.8 °C.

**Q.** And the Tm2 [5]?
**A.** Its Tm2 is 77.5 °C.

**Q.** And the Tonset [5]?
**A.** The Tonset was 64.4 °C.

**Q.** What about the “Total Viable Cell Count” value (human PBMCs [6]; LPS Stimulation) of the same molecule?
**A.** Its value is 1.64 ± 0.12 ×10^6 cells/mL.

**Q.** And the “Total Viable Cell Count” value (human PBMCs [6]; No LPS)?
**A.** Its value is 1.43 ± 0.33 ×10^6 cells/mL.

**Q.** What about the “binding to cell surface CD33 on human monocytes” value (CD33 on human monocytes) of the same molecule?
**A.** Its value is “bound human CD33 expressed on the monocyte cell surface with desirable binding potency”.

**Q.** And the “% Internalization” value [7]?
**A.** Its value is 86.545 ± 4.589%.

**Q.** And the “% HMW species after Protein A chromatography” value [8]?
**A.** Its value is 1.10%.

**Q.** What about the sCHO titer [8] of the same molecule?
**A.** The sCHO titer was 4.7 g/L.

**Q.** And the “CD33 degradation upon binding and internalization” value (CD33 in human PBMCs)?
**A.** Its value is “did not degrade the CD33 upon binding and internalization”.

**Q.** What about the “% Inhibition of human IL-6 secretion at 200 nM” value (human PBMCs [9]) of the same molecule?
**A.** Its value is 12.045 ± 1.887%.

**Q.** What about the “% Inhibition of human TNFa secretion at 200 nM” value (human PBMCs [9]) of the same molecule?
**A.** The value was 5.978 ± 0.548%.
